# The other results are listed elsewhere or left out. Most values come without repeats; read them as rough.
# Tested on: IPC-298
# Experiment: cell count relative to DMSO control; melanoma cells; higher = more viable cells
# Settings: library dose: low library concentration; 72 h
# 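Further: cell number obtained by counting DAPI-stained nuclei in high-throughput microscope images with image analysis software, screen run in 1,536-well plates.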
row,Compound,cell count
1,"O=C(O)[C@@H]1[O][Sb](=[O])([O][Sb]2(=[O])[O][C@H]([C@H](O)CO)[C@H](O)[C@H](C(=O)O)[O]2)[O][C@H]([C@H](O)CO)[C@@H]1O (stereo partly drawn) [stibogluconate] + O=C(Oc1ccc([N+](=O)[O-])cc1)N1CCC(C(O)(c2ccc3c(c2)OCO3)c2ccc3c(c2)OCO3)CC1 [JZL184] (first compound 2 µM, partner dose 1 µM)",96.2%
2,"Cc1ccc(Nc2nccc(N(C)c3ccc4c(C)n(C)nc4c3)n2)cc1S(N)(=O)=O [Pazopanib] + O=C(Oc1ccc([N+](=O)[O-])cc1)N1CCC(C(O)(c2ccc3c(c2)OCO3)c2ccc3c(c2)OCO3)CC1 [JZL184] (first compound 0.4 µM, partner dose 1 µM)",88.2%
3,"CNC(=O)c1cc(Oc2ccc(NC(=O)Nc3ccc(Cl)c(C(F)(F)F)c3)cc2)ccn1 [sorafenib] + O=C(Oc1ccc([N+](=O)[O-])cc1)N1CCC(C(O)(c2ccc3c(c2)OCO3)c2ccc3c(c2)OCO3)CC1 [JZL184] (first compound 0.4 µM, partner dose 1 µM)",98.1%
4,"CNC(=O)c1cc(Oc2ccc(NC(=O)Nc3ccc(Cl)c(C(F)(F)F)c3)cc2)ccn1 [sorafenib] + C/C(O)=C(\C#N)C(=O)Nc1cc(Br)ccc1Br [LFM-A13] (first compound 0.4 µM, partner dose 2 µM)",91.9%
5,"CCCS(=O)(=O)Nc1ccc(F)c(C(=O)c2c[nH]c3ncc(Cl)cc23)c1F + O=C(Oc1ccc([N+](=O)[O-])cc1)N1CCC(C(O)(c2ccc3c(c2)OCO3)c2ccc3c(c2)OCO3)CC1 [JZL184] (first compound 0.08 µM, partner dose 1 µM)",89.7%
6,"CCCCCCCCc1ccc(CCC(N)(CO)CO)cc1 [fingolimod] + O=C(Oc1ccc([N+](=O)[O-])cc1)N1CCC(C(O)(c2ccc3c(c2)OCO3)c2ccc3c(c2)OCO3)CC1 [JZL184] (first compound 2 µM, partner dose 1 µM)",105%
7,"Cc1cn(-c2cc(NC(=O)c3ccc(C)c(Nc4nccc(-c5cccnc5)n4)c3)cc(C(F)(F)F)c2)cn1 [nilotinib] + O=C(Oc1ccc([N+](=O)[O-])cc1)N1CCC(C(O)(c2ccc3c(c2)OCO3)c2ccc3c(c2)OCO3)CC1 [JZL184] (first compound 0.2 µM, partner dose 1 µM)",94.9%
8,"CN(c1ncccc1CNc1nc(Nc2ccc3c(c2)CC(=O)N3)ncc1C(F)(F)F)S(C)(=O)=O + Cc1cc(SCc2sc(-c3ccc(C(F)(F)F)c(F)c3)nc2C)ccc1OCC(=O)O [GW0742] (first compound 0.08 µM, partner dose 2 µM)",101%
9,"C[C@@H](Oc1cc(-c2cnn(C3CCNCC3)c2)cnc1N)c1c(Cl)ccc(F)c1Cl [Crizotinib] + Cc1cc(SCc2sc(-c3ccc(C(F)(F)F)c(F)c3)nc2C)ccc1OCC(=O)O [GW0742] (first compound 0.2 µM, partner dose 2 µM)",98.5%
10,"O=c1[nH]nc(Sc2ncc([N+](=O)[O-])s2)n1-c1ccc2c(c1)OCCO2 + Cc1cc(SCc2sc(-c3ccc(C(F)(F)F)c(F)c3)nc2C)ccc1OCC(=O)O [GW0742] (first compound 0.2 µM, partner dose 2 µM)",114%
11,"CC[C@]1(O)C[C@H]2CN(CCc3c([nH]c4ccccc34)[C@@](C(=O)OC)(c3cc4c(cc3OC)N(C=O)[C@H]3[C@@](O)(C(=O)OC)[C@H](OC(C)=O)[C@]5(CC)C=CCN6CC[C@]43[C@@H]65)C2)C1 [vincristine] + O=C(Oc1ccc([N+](=O)[O-])cc1)N1CCC(C(O)(c2ccc3c(c2)OCO3)c2ccc3c(c2)OCO3)CC1 [JZL184] (first compound 0.0001 µM, partner dose 1 µM)",99.4%
12,"CC(=O)c1c(C)c2cnc(Nc3ccc(N4CCNCC4)cn3)nc2n(C2CCCC2)c1=O [palbociclib] + C/C(O)=C(\C#N)C(=O)Nc1cc(Br)ccc1Br [LFM-A13] (first compound 0.04 µM, partner dose 2 µM)",81.1%
13,"CN(c1ncccc1CNc1nc(Nc2ccc3c(c2)CC(=O)N3)ncc1C(F)(F)F)S(C)(=O)=O + C/C(O)=C(\C#N)C(=O)Nc1cc(Br)ccc1Br [LFM-A13] (first compound 0.08 µM, partner dose 2 µM)",102%
14,"O=C(Nc1cc(C(F)(F)F)cc(C(F)(F)F)c1)c1cc(Cl)ccc1O + C/C(O)=C(\C#N)C(=O)Nc1cc(Br)ccc1Br [LFM-A13] (first compound 0.016 µM, partner dose 2 µM)",101%
15,"N#CC[C@H](C1CCCC1)n1cc(-c2ncnc3[nH]ccc23)cn1 [ruxolitinib] + C/C(O)=C(\C#N)C(=O)Nc1cc(Br)ccc1Br [LFM-A13] (first compound 1 µM, partner dose 2 µM)",104%
16,"O=C(/C=C/c1cccnc1)NCCCCC1CCN(C(=O)c2ccccc2)CC1 + C/C(O)=C(\C#N)C(=O)Nc1cc(Br)ccc1Br [LFM-A13] (first compound 0.01 µM, partner dose 2 µM)",36.1%
17,"Cn1cnc2c(F)c(Nc3ccc(Br)cc3Cl)c(C(=O)NOCCO)cc21 [selumetinib] + O=C(Oc1ccc([N+](=O)[O-])cc1)N1CCC(C(O)(c2ccc3c(c2)OCO3)c2ccc3c(c2)OCO3)CC1 [JZL184] (first compound 0.015 µM, partner dose 1 µM)",70.3%
18,"Nc1ncn([C@H]2C[C@H](O)[C@@H](CO)O2)c(=O)n1 [decitabine] + O=C(Oc1ccc([N+](=O)[O-])cc1)N1CCC(C(O)(c2ccc3c(c2)OCO3)c2ccc3c(c2)OCO3)CC1 [JZL184] (first compound 0.1 µM, partner dose 1 µM)",63.5%
19,"O=C(/C=C/c1cccnc1)NCCCCC1CCN(C(=O)c2ccccc2)CC1 + Cc1cc(SCc2sc(-c3ccc(C(F)(F)F)c(F)c3)nc2C)ccc1OCC(=O)O [GW0742] (first compound 0.01 µM, partner dose 2 µM)",44.3%
20,"CS(=O)(=O)c1ccc(C(=O)Nc2ccc(Cl)c(-c3ccccn3)c2)c(Cl)c1 [vismodegib] + C/C(O)=C(\C#N)C(=O)Nc1cc(Br)ccc1Br [LFM-A13] (first compound 1 µM, partner dose 2 µM)",106%
21,"CS(=O)(=O)CCNCc1ccc(-c2ccc3ncnc(Nc4ccc(OCc5cccc(F)c5)c(Cl)c4)c3c2)o1 [lapatinib] + Cc1cc(SCc2sc(-c3ccc(C(F)(F)F)c(F)c3)nc2C)ccc1OCC(=O)O [GW0742] (first compound 0.8 µM, partner dose 2 µM)",103%
22,"NC1(c2ccc(-c3nc4ccn5c(=O)[nH]nc5c4cc3-c3ccccc3)cc2)CCC1 + C/C(O)=C(\C#N)C(=O)Nc1cc(Br)ccc1Br [LFM-A13] (first compound 0.4 µM, partner dose 2 µM)",102%
23,"CC(=O)c1c(C)c2cnc(Nc3ccc(N4CCNCC4)cn3)nc2n(C2CCCC2)c1=O [palbociclib] + O=C(Oc1ccc([N+](=O)[O-])cc1)N1CCC(C(O)(c2ccc3c(c2)OCO3)c2ccc3c(c2)OCO3)CC1 [JZL184] (first compound 0.04 µM, partner dose 1 µM)",92.1%

# — the supplement of paper PMC4604168 (melanoma cell lines)
